The test system of the data set is ATP. The data set can be described thus: switch fluorescence ratio, 500 uM ATP over buffer (Cy3 cluster intensity, sum of 5 cycles each) (fold (ratio)); higher = stronger signal-on switching upon ATP binding; sequences stand for … in TCGTCGGCAGCGTCAGATGTGTATAAGAGACAGTTTTTTTTTTTTTTTTTTTTTTTTT…TC. As to conditions: aptamer strand: ATP DNA aptamer (quencher-CACCTGGGGGAGTATTGCGGAGGAAGG + anchor), 100 nM annealed; ATP concentration: 500 uM; one replicate. The procedure, abridged:
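Switching-strand clusters labelled with Cy3 on a modified Illumina MiSeq flow-cell were annealed to 100 nM quencher-labelled ATP aptamer, imaged in selection buffer, and re-imaged after 15 min with 500 uM ATP at 22 °C. This was done over five cycles with NaOH stripping and re-annealing in between. The fluorescence ratio is summed target-cycle over summed buffer-cycle Cy3 intensity per cluster, averaged per switch-domain sequence, excluding clusters outside 100-1000 RFU.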

Sequences with one replicate were seen in a single cluster, so their values are uncertain.
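Further: ATP exposure 15 min at 22 °C before imaging.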

AAATCAGAGG: the switch fluorescence ratio is 1.02.
The value for TATAAAGAAC was 1.35; that for CGCCGGCGTC was 0.979.
The value for CGGGTAGCGA was 0.99.
As to AAATGGCCGT, the switch fluorescence ratio is 0.973.
With CCCTTTTATG, the switch fluorescence ratio worked out at 1.02.
In the case of TGAATCTCAG it was 0.984.
The value for GTCGGTTGCG was 1.03; that for CGAAGTCAAG was 1.52.
In the case of AACTCCTAAA it was 1.05.
With ACGATCATA, the switch fluorescence ratio stood at 0.982.
ATCACTAGAT: the switch fluorescence ratio was determined as 0.961.
The value for GATGGAGCAT was 1.22.
In the case of CGCCAGACTG it was 1.07; in that of CATTACTATC, 0.99; in that of AGATATCTCT, 1.
ATAGTCAGCC: the switch fluorescence ratio was found to be 1.01.
In the case of TCGGTCCCAA it was 1.07; in that of ATGCTTTAAC, 1.02; in that of TGGTTTTGTA, 1.05.
The value for TCTTGCTGAC was 1.05; that for CACATACTGT was 1.41; that for GGGTTCGCTC was 0.99.
The value for CGGCAGCGG was 1.07.
With TGACCCGAGC, the switch fluorescence ratio was found to be 1.03.
The value for ATAGGGCAGT was 0.974; that for TCAGATGCAC was 1.18.
On to TCAAGTCGGC, for which the switch fluorescence ratio came out at 0.981.
On to GCAGACCAAA, for which the switch fluorescence ratio worked out at 1.01.
The value for GCGTTAGTCA was 1.01.
The value for GCCCAGTTCT was 1; that for TATGAGATTG was 0.992.
On to TTGGATCATC, for which the switch fluorescence ratio came out at 0.965.
In the case of TTACGCCATC it was 3.3.
Consider GCGCAAATAT, for which the switch fluorescence ratio turned out to be 1.02.
The value for GCTACCTGAA was 1.09; that for TTTTAGCAT was 0.991; that for TGAATATCGG was 0.965.
Take GAGGTCTTTC: the switch fluorescence ratio worked out at 1.02.
In the case of TTCGGTTCTG it was 0.968; in that of CTTGCAGAAA, 1.01; in that of TACCGTGGCG, 0.97.
With GCGTAGATAT, the switch fluorescence ratio came to 1.08.
The value for ATGGTAAACT was 1.06.
The value for AAGTGATAGT was 1; that for ATGTGCGGTC was 0.967; that for GAGATTCGCG was 0.981.
In the case of CCTGTATGGG, the switch fluorescence ratio was 1.05.
With AACGCCAGGG, the switch fluorescence ratio worked out at 1.23.
For the sequence GTGGTACCCA, the switch fluorescence ratio was found to be 0.982.
On to GTGGACGGAC, for which the switch fluorescence ratio came out at 0.967.
Regarding TTGGGGAGC, the switch fluorescence ratio turned out to be 0.982.
TTTCCCGCTG: the switch fluorescence ratio amounted to 1.3.
In the case of CATTTTGAAC it was 0.968; in that of AAACCCGC, 1.04; in that of CAATGGCGTC, 1.01.
In the case of GTGAGAAGCG it was 0.991; in that of CGCGGAGGAC, 1.15; in that of AGATAGTTAA, 1.05.
In the case of TACCTTTCGG it was 1.08.
GGCCGGGGG: the switch fluorescence ratio was 0.975.
In the case of GGGATGTGAC it was 1.24; in that of ATAGCGGCTA, 0.992.
In the case of AGTAACCTGC it was 1.1; in that of CAGTGTAGAT, 0.988; in that of GGTGTAAGGT, 1.06.
The value for GCTCCTTTAT was 0.999.

Source of the values: the supplement of paper PMC10126150.
